Assay results published in article PMC4336329 (PLoS ONE, 2015).
In all, about 310,000 compounds went through this assay and about 14,000 (4.5%) showed an effect of 50% or more. The effect is printed as a negative number. The list shows a part of the results.

target: human ether-à-go-go-related gene (hERG) potassium channel (human, UniProt Q12809); experiment: primary screen, population patch clamp on CHO cells stably expressing hERG
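Note: peak tail current of the secondary pulse compared with the same well before compound.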

human ether-à-go-go-related gene (hERG) potassium channel, sequence (Q12809 whole entry, looked up): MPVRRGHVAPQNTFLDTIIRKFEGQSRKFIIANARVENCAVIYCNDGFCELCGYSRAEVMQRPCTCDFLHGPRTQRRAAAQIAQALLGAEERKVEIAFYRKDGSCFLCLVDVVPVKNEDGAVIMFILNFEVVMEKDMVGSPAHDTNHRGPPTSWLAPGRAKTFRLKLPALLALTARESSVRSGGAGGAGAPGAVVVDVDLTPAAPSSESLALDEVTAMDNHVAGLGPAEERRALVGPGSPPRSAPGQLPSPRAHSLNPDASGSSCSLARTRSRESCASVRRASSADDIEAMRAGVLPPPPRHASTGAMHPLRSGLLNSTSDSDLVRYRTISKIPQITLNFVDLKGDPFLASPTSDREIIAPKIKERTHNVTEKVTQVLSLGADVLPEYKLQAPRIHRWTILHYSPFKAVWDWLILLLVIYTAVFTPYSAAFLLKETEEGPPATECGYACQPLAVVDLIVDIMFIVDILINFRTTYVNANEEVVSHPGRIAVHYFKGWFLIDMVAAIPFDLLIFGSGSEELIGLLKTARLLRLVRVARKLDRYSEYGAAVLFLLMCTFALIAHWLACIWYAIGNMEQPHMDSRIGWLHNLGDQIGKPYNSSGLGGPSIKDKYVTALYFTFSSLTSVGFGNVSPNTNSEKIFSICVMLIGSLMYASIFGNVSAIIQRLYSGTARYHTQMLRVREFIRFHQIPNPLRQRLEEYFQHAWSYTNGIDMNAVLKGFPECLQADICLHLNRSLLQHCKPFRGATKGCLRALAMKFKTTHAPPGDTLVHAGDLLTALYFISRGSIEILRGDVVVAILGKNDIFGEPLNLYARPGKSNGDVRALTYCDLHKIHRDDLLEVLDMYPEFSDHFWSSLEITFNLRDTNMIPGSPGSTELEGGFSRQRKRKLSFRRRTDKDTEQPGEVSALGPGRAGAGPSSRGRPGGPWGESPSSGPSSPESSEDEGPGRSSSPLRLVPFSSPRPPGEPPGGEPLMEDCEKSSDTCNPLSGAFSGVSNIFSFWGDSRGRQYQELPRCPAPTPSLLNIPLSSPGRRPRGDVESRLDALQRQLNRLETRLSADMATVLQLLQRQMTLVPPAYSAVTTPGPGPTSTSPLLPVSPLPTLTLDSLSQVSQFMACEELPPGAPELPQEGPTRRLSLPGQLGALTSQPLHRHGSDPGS

SMILES | hERG current change (%, negative = inhibition) at 10uM
N#Cc1c(N)nc2c(c1-c1ccc3c(c1)OCO3)CCc1ccccc1-2 | 29%
COc1ccccc1C1=CC(=O)C[C@H](c2ccc(Cl)cc2)C1 | 0.852%
Cc1cc(=O)oc2cc(NC(=S)NCc3cccnc3)ccc12 | 18.9%
O=C(NC1CCCCC1)C(c1cccnc1)N(C(=O)CCl)c1cccc(Cl)c1 (centres unmarked) | -14.2%
COc1cc(/C=N/NC(=O)CCN2CCN(C(c3ccccc3)c3ccccc3)CC2)ccc1O | -78.7%
O=C(CCc1ccccc1)NC(=S)Nc1cccc(Br)c1 | 14.3%
c1ccc(-n2nnc3cnccc32)cc1 | 12%
O=C(O)C(=O)O.O=C(c1ccco1)N1CCN(Cc2cccc([N+](=O)[O-])c2)CC1 | -20.3%
COc1ccc(NC(=O)CN(C)C(=O)c2c(-c3ccccc3Cl)noc2C)cc1 | 3.2%
O=C(Nc1cccc(S(=O)(=O)N2CCCCC2)c1)c1cc([N+](=O)[O-])ccc1N1CCOCC1 | -64.2%
Cc1ccc(C(=O)NC(=S)N2CCN(c3ccc([N+](=O)[O-])cc3)CC2)cc1 | -15.6%
COc1ccc(-c2cc(C(=O)NCc3ccco3)c3ccccc3n2)cc1OC | -14.7%
COc1ccc(NC(=S)N(Cc2ccccn2)Cc2ccccc2Cl)cc1 | -11.5%
O=C1CCCC2=C1C(c1ccsc1)CC(=O)N2c1ccccc1 (centres unmarked) | -9.24%
COc1cc(S(=O)(=O)Nc2c(C)nn(C)c2C)ccc1NC(C)=O | 0.368%
Cc1nc2ccc([N+](=O)[O-])cc2c(=O)n1Cc1cccc(Br)c1 | -4.24%
CCOC(=O)C1(CC2CC2)CCN(C(=O)c2ocnc2C)CC1 | 7.25%
CCS(=O)(=O)Nc1cc(OC)c(OC)cc1Cc1nccc2cc(OC)c(OC)cc12 | -9.09%
N#CCC(=O)Nc1ccc(C(=O)OC(C(=O)Nc2cc(C(F)(F)F)ccc2Cl)c2ccccc2)cc1 (centres unmarked) | -7.88%
Cc1ccc(-n2nnnc2SCC(=O)NNC(=O)c2ccco2)cc1C | 24.3%
Cc1nc2c(ccc3nc(NC(=O)Cc4cccc5ccccc45)sc32)s1 | 21%
O=C(Nc1ccc2[nH]ncc2c1)c1ccccc1Cl | 22.1%
CCCC(=O)Nc1cc2c(cc1C(=O)c1ccccc1)OCCO2 | -12.2%
